# Toxic doses and inconclusive results are not listed. Certain results were filed several times, with different values. The list is limited to them. The source may hold further records. Results that share an entry differ, and nothing given here explains why; they may come from other doses, times, organisms or constructs than stated.
# Tested on: L1210 leukemia ip in BDF1 mice, survival T/C
# Assay: NCI In Vivo Anticancer Drug Screen. Data for tumor model L1210 Leukemia (intraperitoneal) in B6D2F1 (BDF1) mice
# Conditions: higher = longer survival
structure (smiles),measurement,setting,value
COc1cc(C=Nc2ccc(-c3nc(C)sc3C)cc2)ccc1N(CCCl)CCCl,T/C,"endpoint: mean survival time, dose: 16.6 mg/kg/injection, schedule: Q01DX001 (ip), vehicle: carboxymethylcellulose (CMC)",123 % of control and 151 % of control
COc1cc(C=Nc2ccc(-c3csc(COc4ccccc4)n3)cc2)ccc1N(CCCl)CCCl,T/C,"endpoint: mean survival time, dose: 33.0 mg/kg/injection, schedule: Q01DX015 (ip), vehicle: carboxymethylcellulose (CMC)",111 % of control and 159 % of control
C1OC1CN1CCN(CC2CO2)CC1 (centres undefined),T/C,"endpoint: mean survival time, dose: 25.0 mg/kg/injection, schedule: Q01DX009 (ip), vehicle: saline","109 % of control, 191 % of control, 195 % of control"
COc1cccc2c1C(=O)c1c(O)c3c(c(O)c1C2=O)CC(O)(C(C)=O)CC3OC1CC(N)C(O)C(C)O1 (centres undefined),T/C,"endpoint: median survival time, dose: 30.0 mg/kg/injection, schedule: Q01DX005 (ip), vehicle: water",121 % of control and 172 % of control

# — PubChem BioAssay AID248 (DTP/NCI, 2004)
